{
  "source": "paper PMC6212790",
  "note": "The list shows a part of the results. At the low end of the ranking the order means little.",
  "data": [
    {"target": "T1, GST-Rok-C97-191 (UniProt O34857)", "T1 sequence": "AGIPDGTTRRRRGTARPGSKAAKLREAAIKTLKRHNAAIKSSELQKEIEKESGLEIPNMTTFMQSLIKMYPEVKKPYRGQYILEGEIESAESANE", "assay": "protein binding microarray;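 further: rank score from −0.5 (least bound) to 0.5 (best bound)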", "conditions": "Rok is a gene silencer of Bacillus subtilis; high values mean tight binding; most listed sequences are background and not binding sites; double strand, one strand shown", "units": {"binding signal": "E-score"}, "values": [
      {"sequence": "GTGAAGGA", "binding signal": -0.211},
      {"sequence": "AGAGGCGC", "binding signal": -0.215},
      {"sequence": "AAAGTGGT", "binding signal": 0.149},
      {"sequence": "TCGACTAA", "binding signal": 0.0796},
      {"sequence": "AGTTCGTG", "binding signal": -0.134},
      {"sequence": "GAATCACA", "binding signal": 0.11},
      {"sequence": "CCAATTAC", "binding signal": 0.0758},
      {"sequence": "AGACAGAT", "binding signal": -0.0299},
      {"sequence": "AAACTAGA", "binding signal": 0.354},
      {"sequence": "GATGGAGA", "binding signal": -0.171},
      {"sequence": "GACAAAGC", "binding signal": -0.151},
      {"sequence": "CGAGCGAG", "binding signal": -0.272},
      {"sequence": "TCTTGAAA", "binding signal": -0.143},
      {"sequence": "CGGACGAG", "binding signal": -0.278},
      {"sequence": "AACCCACT", "binding signal": 0.0905},
      {"sequence": "ACTCGCCT", "binding signal": -0.0993},
      {"sequence": "ATGTGATC", "binding signal": 0.133},
      {"sequence": "ACACCATG", "binding signal": 0.0858},
      {"sequence": "CCGGACCC", "binding signal": -0.169},
      {"sequence": "GCAACGGC", "binding signal": -0.222},
      {"sequence": "GACCACGA", "binding signal": -0.251},
      {"sequence": "ACCGTAAA", "binding signal": 0.211},
      {"sequence": "GGCTCAAC", "binding signal": -0.147},
      {"sequence": "CACTCAAG", "binding signal": -0.138},
      {"sequence": "GCGAGGGA", "binding signal": -0.39},
      {"sequence": "ACTCAGGA", "binding signal": -0.0975},
      {"sequence": "TAAACCAA", "binding signal": 0.0919},
      {"sequence": "AAGCCGGA", "binding signal": -0.0857},
      {"sequence": "CTCGTGGA", "binding signal": -0.21},
      {"sequence": "CAGGGAGC", "binding signal": -0.193},
      {"sequence": "TAGTACCA", "binding signal": 0.25},
      {"sequence": "AAGTTTGA", "binding signal": -0.0338},
      {"sequence": "CCAGTAGC", "binding signal": 0.213},
      {"sequence": "GGAAGAAC", "binding signal": -0.18},
      {"sequence": "CACCGATC", "binding signal": -0.139},
      {"sequence": "CGCAGTGA", "binding signal": -0.114},
      {"sequence": "CAGGCTAA", "binding signal": -0.0564},
      {"sequence": "CTGGTCGC", "binding signal": -0.155},
      {"sequence": "CCATATCC", "binding signal": -0.00318},
      {"sequence": "AGTGCGGC", "binding signal": -0.129},
      {"sequence": "GTCGGTGA", "binding signal": -0.0594},
      {"sequence": "AAATGCCG", "binding signal": 0.142},
      {"sequence": "AATGAACG", "binding signal": 0.0378},
      {"sequence": "CAGATCCC", "binding signal": -0.145},
      {"sequence": "ATAAGGTA", "binding signal": 0.176},
      {"sequence": "CCATAACG", "binding signal": -0.0217},
      {"sequence": "CACGACCG", "binding signal": -0.153},
      {"sequence": "CCATCCCA", "binding signal": -0.162},
      {"sequence": "GCTCCGAC", "binding signal": -0.133},
      {"sequence": "CCAACACG", "binding signal": -0.123},
      {"sequence": "CACGATAG", "binding signal": 0.161},
      {"sequence": "AAACACTT", "binding signal": -0.00461},
      {"sequence": "GGAGACAA", "binding signal": -0.179},
      {"sequence": "ACCCTCCA", "binding signal": -0.125},
      {"sequence": "CCTTTTAG", "binding signal": 0.0597},
      {"sequence": "GGTTACAC", "binding signal": -0.0727},
      {"sequence": "GGGTGAAA", "binding signal": 0.0555},
      {"sequence": "ACGACTTG", "binding signal": 0.0669},
      {"sequence": "ACCCCCCT", "binding signal": -0.275},
      {"sequence": "AAAACCAC", "binding signal": -0.0707},
      {"sequence": "GTTACATA", "binding signal": 0.302},
      {"sequence": "AAAGATAT", "binding signal": 0.266},
      {"sequence": "CCAGCAGG", "binding signal": -0.275},
      {"sequence": "AACCAACC", "binding signal": -0.0154},
      {"sequence": "CGACACCC", "binding signal": -0.2},
      {"sequence": "ACCGCGAC", "binding signal": -0.0314},
      {"sequence": "CCCTTCCG", "binding signal": -0.284},
      {"sequence": "CTTCACCA", "binding signal": -0.104},
      {"sequence": "GAATGACA", "binding signal": -0.0644},
      {"sequence": "ACACGGCC", "binding signal": -0.212},
      {"sequence": "GAGGGTCA", "binding signal": -0.211},
      {"sequence": "CAGGAGTA", "binding signal": 0.0915},
      {"sequence": "ACTTTAGC", "binding signal": 0.00825},
      {"sequence": "AACAGGAA", "binding signal": -0.11},
      {"sequence": "CGGCTCAA", "binding signal": -0.0709},
      {"sequence": "ACACACAA", "binding signal": -0.0584},
      {"sequence": "GATCCCAC", "binding signal": 0.13},
      {"sequence": "CGCAGCAG", "binding signal": -0.172},
      {"sequence": "ACTCAGTG", "binding signal": -0.201},
      {"sequence": "AGCTAAGA", "binding signal": -0.0157},
      {"sequence": "ATGATATC", "binding signal": 0.162},
      {"sequence": "ATTCCTGC", "binding signal": 0.182},
      {"sequence": "CAATACAA", "binding signal": 0.18},
      {"sequence": "ATTGCTCC", "binding signal": 0.0699},
      {"sequence": "CCAGTTCG", "binding signal": -0.177},
      {"sequence": "ACATCCAG", "binding signal": 0.077},
      {"sequence": "ACGCTTTG", "binding signal": -0.0944},
      {"sequence": "CATGGTAG", "binding signal": 0.188},
      {"sequence": "GCTAAGGA", "binding signal": -0.139},
      {"sequence": "GATCGCTA", "binding signal": 0.0703},
      {"sequence": "GGGGTCGA", "binding signal": -0.242},
      {"sequence": "GACGGCAC", "binding signal": -0.208},
      {"sequence": "ACGAACGG", "binding signal": 0.000593},
      {"sequence": "CTCTGAAA", "binding signal": 0.0126}
    ]}
  ]
}
